In the antibiotic and cytotoxicity screens of Wong et al. (2023):
The other results are listed elsewhere or left out.

Columns and labels:
HSkMC = human skeletal muscle cells; experiment: cytotoxicity call (relative viability < 0.9); conditions: 10 µM
HepG2 = experiment: cytotoxicity call (relative viability < 0.9); conditions: 10 µM
S. aureus RN4220 = experiment: growth inhibition call (relative growth <= 0.2); conditions: 50 µM

Row | Structure (SMILES) | cytotoxicity call (HSkMC) | cytotoxicity call (HepG2) | growth inhibition call (S. aureus RN4220)
1 | CN1CCN(CCO)C(=O)C12CCN([C@H]1CCOC1)CC2 | inactive | inactive | inactive
2 | CN1CCN([C@H](CNC(=O)C(=O)NC[C@H]2CCCO2)c2ccc(N(C)C)cc2)CC1 | inactive | inactive | inactive
3 | C[C@@H]1CN([C@@H](C)CO)C(=O)c2cc(NC(=O)c3ccncc3)ccc2O[C@H]1CN(C)Cc1ccc(C(=O)O)cc1 | inactive | inactive | inactive
4 | COc1cccc(S(=O)(=O)N(C)C[C@@H]2Oc3cc(C#CCC(C)C)ccc3S(=O)(=O)N([C@H](C)CO)C[C@H]2C)c1 | inactive | inactive | inactive
5 | COCC#Cc1ccc([C@H]2[C@H]3CN(C(=O)CN4CCOCC4)CC(=O)N3[C@H]2CO)cc1 | inactive | inactive | inactive
6 | C[C@@H]1CN([C@H](C)CO)C(=O)c2cc(NS(=O)(=O)c3ccc(F)cc3)ccc2O[C@@H]1CN(C)Cc1ccc(-c2ccccc2)cc1 | active | active | inactive
7 | C[C@@H]1CCCCO[C@H](CN(C)C(=O)Nc2ccc3c(c2)OCO3)[C@@H](C)CN([C@H](C)CO)C(=O)c2cc(NC(=O)Nc3ccc(F)cc3)ccc2O1 | inactive | inactive | inactive
8 | CCOC(=O)c1c(C)cc(O)cc1O | inactive | inactive | inactive
9 | O=C1c2cccc(O)c2C(=O)c2c(O)cccc21 | inactive | active | inactive
10 | C[C@H]1CN([C@@H](C)CO)C(=O)c2cc(NS(C)(=O)=O)ccc2O[C@@H]1CN(C)S(=O)(=O)c1cccs1 | inactive | inactive | inactive
11 | COc1cccc(C#Cc2ccc3c(c2)O[C@H](CN(C)S(=O)(=O)c2ccccc2F)[C@H](C)CN([C@H](C)CO)S3(=O)=O)c1 | inactive | inactive | inactive
12 | COc1ccc(S(=O)(=O)N(C)C[C@@H]2OCCCC[C@H](C)Oc3ccc(NC(=O)Nc4ccc(C(F)(F)F)cc4)cc3C(=O)N([C@H](C)CO)C[C@H]2C)cc1 | inactive | inactive | inactive
13 | CN(C)CCOc1ccc(C#N)cn1 | inactive | inactive | inactive
14 | CSc1ncc(C(=O)NN)n1C | inactive | inactive | inactive
15 | C[C@H]1CN([C@@H](C)CO)C(=O)c2cccc(NC(=O)Nc3cccc4ccccc34)c2O[C@H]1CN(C)Cc1ccncc1 | inactive | inactive | inactive
16 | C[C@@H]1CN([C@H](C)CO)C(=O)c2cc(NS(=O)(=O)c3cn(C)cn3)ccc2O[C@@H](C)CCCCO[C@@H]1CN(C)C(=O)c1ccncc1 | inactive | inactive | inactive
17 | CCCCC/C=C\C/C=C\CCCCCCCCCC(=O)O | inactive | inactive | inactive
18 | C[C@H]1CN([C@@H](C)CO)C(=O)c2cccc(NC(=O)Nc3ccc(C(F)(F)F)cc3)c2O[C@@H]1CN(C)CC1CCCCC1 | active | active | inactive
19 | C[C@@H]1CN([C@@H](C)CO)C(=O)CCCn2nncc2CO[C@@H]1CN(C)S(C)(=O)=O | inactive | inactive | inactive
20 | CO[C@H]1[C@H](OC)[C@@H](OC)C[C@@H]2C(=O)O[C@@H](C(=O)O)[C@@H]12 | inactive | inactive | inactive

Row | Structure (SMILES) | cytotoxicity call (HSkMC) | cytotoxicity call (HepG2) | growth inhibition call (S. aureus RN4220)
21 | C[C@H](CO)N1C[C@H](C)[C@H](CN(C)C(=O)Nc2ccc(F)cc2)Oc2c(NC(=O)c3nc4ccccc4s3)cccc2C1=O | inactive | inactive | inactive
22 | COc1ccc(NC(=O)N(C)C[C@@H]2OCCCC[C@@H](C)Oc3ccc(NC(=O)NC4CCCCC4)cc3C(=O)N([C@@H](C)CO)C[C@H]2C)cc1 | inactive | inactive | inactive
23 | Cc1noc(C)c1NC(=O)N(C)C[C@@H]1Oc2ccc(NC(=O)Nc3ccc(C(F)(F)F)cc3)cc2C(=O)N([C@@H](C)CO)C[C@@H]1C | inactive | inactive | inactive
24 | O=S1(=O)CCC(O)CC1 | inactive | inactive | inactive
25 | C[C@@H]1CN([C@@H](C)CO)C(=O)Cc2cc(NC(=O)Nc3ccccc3)ccc2O[C@H]1CN(C)Cc1ccc(C(F)(F)F)cc1 | active | active | inactive
26 | C[C@@H]1CN([C@@H](C)CO)C(=O)Cc2cc(NS(=O)(=O)c3cn(C)cn3)ccc2O[C@@H]1CN(C)S(C)(=O)=O | inactive | inactive | inactive
27 | C[C@@H]1CN([C@H](C)CO)C(=O)CCCn2nncc2CO[C@@H]1CN(C)C(=O)Nc1ccc(C(F)(F)F)cc1 | inactive | inactive | inactive
28 | CC(C)c1c(O)ccc2c1CCC1C(C)(C)C(=O)CCC21C (centres undefined) | inactive | inactive | inactive
29 | Cc1ccc(S(=O)(=O)N(C)C[C@@H]2Oc3ncc(C#CCC(C)C)cc3C(=O)N([C@H](C)CO)C[C@@H]2C)cc1 | inactive | inactive | inactive
30 | COc1ccc(NC(=O)Nc2cccc3c2O[C@H](CN(C)Cc2ccc(C(F)(F)F)cc2)[C@@H](C)CN([C@H](C)CO)C3=O)cc1 | inactive | inactive | inactive
31 | C[C@@H]1CCCCO[C@H](CN(C)C(=O)C2CCCCC2)[C@@H](C)CN([C@H](C)CO)C(=O)c2cc(NC(=O)Nc3ccccc3)ccc2O1 | inactive | inactive | inactive
32 | COc1cccc(S(=O)(=O)N2C[C@@H](O)COC[C@H]3O[C@H](CC(=O)N4CCN(C)CC4)CC[C@@H]32)c1 | inactive | inactive | inactive
33 | COCCOC(=O)N1C(=O)[C@@]2(c3cc(C#CC4=CCCCC4)ccc31)[C@H](C(=O)N1CCN(c3ncccn3)CC1)[C@H]1C(=O)O[C@H](c3ccccc3)[C@H](c3ccccc3)N1[C@@H]2c1ccc(OCCO)cc1 | inactive | inactive | inactive
34 | O=C1OCCN1N=Cc1ccc([N+](=O)[O-])o1 | inactive | active | active
35 | CC(=O)N(C)C[C@@H]1Oc2ncc(C#CC(C)(C)O)cc2C(=O)N([C@H](C)CO)C[C@H]1C | inactive | inactive | inactive
36 | C[C@H](CO)N1C[C@H](C)[C@@H](CN(C)Cc2ccc(-c3ccccc3)cc2)Oc2ccc(NS(=O)(=O)c3ccccc3)cc2C1=O | inactive | inactive | inactive
37 | CCCN(C)C[C@H]1OCCCC[C@@H](C)Oc2ccc(NS(=O)(=O)c3cn(C)cn3)cc2C(=O)N([C@H](C)CO)C[C@H]1C | inactive | inactive | inactive
38 | COc1cccc(NC(=O)N2C[C@@H](O)COC[C@H]3O[C@@H](CC(=O)NCCCN4CCOCC4)CC[C@@H]32)c1 | inactive | inactive | inactive
39 | C[C@@H]1CN([C@H](C)CO)S(=O)(=O)c2ccc(-c3ccc(F)cc3)cc2O[C@@H]1CN(C)C(=O)C1CCOCC1 | inactive | inactive | inactive
40 | C[C@@H]1CN([C@H](C)CO)C(=O)c2cc(NC(=O)Nc3cccc4ccccc34)ccc2O[C@H]1CN(C)Cc1ccc(C(=O)Nc2ccccc2N)cc1 | inactive | inactive | inactive

Row | Structure (SMILES) | cytotoxicity call (HSkMC) | cytotoxicity call (HepG2) | growth inhibition call (S. aureus RN4220)
41 | CC(/C=C/C(=O)NO)=C\c1ccccc1OC[C@@H]1[C@H]2C[C@H]3c4[nH]c5ccccc5c4CCN3C[C@@H]2CC[C@@H]1O | inactive | inactive | inactive
42 | C[C@H](CO)N1C[C@H](C)[C@@H](CN(C)C(=O)C2CCC2)Oc2cc(-c3ccc(C(=O)N(C)C)cc3)ccc2S1(=O)=O | inactive | inactive | inactive
43 | C[C@@H]1CN([C@@H](C)CO)C(=O)Cc2cc(NC(=O)Nc3ccc(C(F)(F)F)cc3)ccc2O[C@H]1CN(C)C(=O)NC1CCCCC1 | inactive | inactive | inactive
44 | Cc1ccc(CN2CCN(CCO)CC2)o1 | inactive | inactive | inactive
45 | COc1ccc(CNC(=O)C[C@@H]2C[C@@H]3c4cc(NS(=O)(=O)c5ccc(F)cc5)ccc4O[C@@H]3[C@@H](CO)O2)cc1 | inactive | inactive | inactive
46 | CN(C)CCCNC(=O)C[C@H]1CC[C@H]2[C@H](COc3ccc(NC(=O)NC4CCCC4)cc3C(=O)N2C)O1 | inactive | inactive | inactive
47 | CN1C(=O)CC(c2ccccc2)C1=O (centres undefined) | inactive | inactive | inactive
48 | C[C@@H]1CN([C@H](C)CO)C(=O)c2cc(NC(=O)C3CCCCC3)ccc2O[C@@H](C)CCCCO[C@@H]1CN(C)S(=O)(=O)c1ccc(Cl)cc1 | inactive | inactive | inactive
49 | C[C@@H]1CCCCO[C@H](CN(C)S(C)(=O)=O)[C@@H](C)CN([C@H](C)CO)C(=O)c2cc(NS(=O)(=O)c3cccs3)ccc2O1 | inactive | inactive | inactive
50 | C[C@H](CO)N1C[C@H](C)[C@H](CN(C)S(=O)(=O)c2ccccc2F)Oc2ncc(C#Cc3cccnc3)cc2C1=O | inactive | inactive | inactive
51 | C[C@@H]1CN([C@@H](C)CO)S(=O)(=O)c2ccc(C#Cc3ccccn3)cc2O[C@@H]1CN(C)Cc1ccccc1 | inactive | inactive | inactive
52 | CN(C)CCNc1cn[nH]c(=O)c1Cl | inactive | inactive | inactive
53 | COc1ccc(S(=O)(=O)N(C)C[C@@H]2Oc3ccc(NS(=O)(=O)c4ccc(C)cc4)cc3C(=O)N([C@@H](C)CO)C[C@@H]2C)cc1 | inactive | inactive | inactive
54 | COc1cccc(S(=O)(=O)Nc2ccc3c(c2)[C@@H]2C[C@@H](CC(=O)NCc4cccc(F)c4)O[C@H](CO)[C@@H]2O3)c1 | inactive | inactive | inactive
55 | COc1ccc(S(=O)(=O)Nc2ccc3c(c2)CC(=O)N([C@H](C)CO)C[C@@H](C)[C@@H](CN(C)S(=O)(=O)c2ccc(F)cc2)O3)cc1 | inactive | inactive | inactive
56 | Cc1c(Br)c(=O)n(C)c(=O)n1C | inactive | inactive | inactive
57 | COc1ccc(S(=O)(=O)N(C)C[C@@H]2Oc3ncc(-c4ccncc4)cc3C(=O)N([C@H](C)CO)C[C@@H]2C)cc1 | inactive | inactive | inactive
58 | CCS(=O)(=O)N1C[C@]2(CN(C2)C(=O)Nc2c(noc2C)C)c2c([nH]c3cc(ccc23)OC)[C@@H]1CO | inactive | inactive | inactive
